# Measurements published in the supplement of paper PMC8728848.
# Some of the results follow.
# B1: HHL-1 (Homo sapiens), P07306 (protein)
# chain: TKEYQDLQHLDNEESDHHQLRKGPPPPQPLLQRLCSGPRLLLLSLGLSLLLLVVVCVIGSQNSQLQEELRGLRETFSNFTASTEAQVKGLSTQGGNVGRKMKSLESQLEKQQKDLSEDHSSLLLHVKQFVSDLRSLSCQMAALQGNGSERTCCPVNWVEHERSCYWFSRSGKAWADADNYCRLEDAHLVVVTSWEEQKFVQHHIGPVNTWMGLHDQNGPWKWVDGTDYETGFKNWRPEQPDDWYGHGLGGGEDCAHFTDDGRWNDDVCQRPYRWVCETELDKASQEPPLL
# Key:
# Assay in all cases: glycan array binding signal (z-score within array); higher = stronger binding
# Conditions in all cases: glycan notation: IUPAC condensed, linker removed
# [1] = target: Gal3S(b1-3)[Fuc(a1-4)]GlcNAc
# How it was run: (§1)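 From the Consortium for Functional Glycomics database, 3228 arrays were curated, keeping only those whose protein sequence was available. Binding is given as a within-array Z-score averaged across arrays sharing a protein sequence and across linkers. Negative Z-scores can be read as non-binding.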
# Gal3S(b1-4)Glc = target: Gal3S(b1-4)Glc
# How it was run: as §1
# Gal3S(b1-4)Glc6S = target: Gal3S(b1-4)Glc6S
# How it was run: as §1
# Gal3S(b1-4)GlcNAc = target: Gal3S(b1-4)GlcNAc
# How it was run: as §1
# Gal3S(b1-4)GlcNAc6S = target: Gal3S(b1-4)GlcNAc6S
# How it was run: as §1
# [2] = target: Gal3S(b1-4)[Fuc(a1-3)]Glc
# How it was run: as §1
# Gal3S4S(b1-4)GlcNAc = target: Gal3S4S(b1-4)GlcNAc
# How it was run: as §1
# Gal3S6S(b1-4)GlcNAc = target: Gal3S6S(b1-4)GlcNAc
# How it was run: as §1
# Gal3S6S(b1-4)GlcNAc6S = target: Gal3S6S(b1-4)GlcNAc6S
# How it was run: as §1
# Gal4S(b1-4)GlcNAc = target: Gal4S(b1-4)GlcNAc
# How it was run: as §1
# Gal4S6S(b1-4)GlcNAc = target: Gal4S6S(b1-4)GlcNAc
# How it was run: as §1
# Gal6S(b1-4)Glc = target: Gal6S(b1-4)Glc
# How it was run: as §1
# Gal6S(b1-4)Glc6S = target: Gal6S(b1-4)Glc6S
# How it was run: as §1
# Gal6S(b1-4)GlcNAc = target: Gal6S(b1-4)GlcNAc
# How it was run: as §1
# Gal6S(b1-4)GlcNAc6S = target: Gal6S(b1-4)GlcNAc6S
# How it was run: as §1
# GalNAc(a1-3)Gal = target: GalNAc(a1-3)Gal
# How it was run: as §1
# GalNAc(a1-3)GalNAc = target: GalNAc(a1-3)GalNAc
# How it was run: as §1
# GalNAc(b1-3)Gal = target: GalNAc(b1-3)Gal
# How it was run: as §1
# [3] = target: GalNAc(b1-3)Gal(a1-4)Gal(b1-4)GlcNAc
# How it was run: as §1
# [4] = target: GalNAc(b1-3)Gal(a1-4)Gal(b1-4)GlcNAc(b1-3)Gal(b1-4)Glc
# How it was run: as §1
# GalNAc(b1-3)GalNAc = target: GalNAc(b1-3)GalNAc
# How it was run: as §1
# GalNAc(b1-4)GlcNAc = target: GalNAc(b1-4)GlcNAc
# How it was run: as §1
# [5] = target: GalNAc(b1-4)GlcNAc(b1-2)Man(a1-3)[GalNAc(b1-4)GlcNAc(b1-2)Man(a1-6)]Man(b1-4)GlcNAc(b1-4)GlcNAc
# How it was run: as §1
# Glc(a1-4)Glc = target: Glc(a1-4)Glc
# How it was run: as §1
# Glc(a1-6)Glc(a1-6)Glc = target: Glc(a1-6)Glc(a1-6)Glc
# How it was run: as §1
# Glc(b1-4)Glc = target: Glc(b1-4)Glc
# How it was run: as §1
# Glc(b1-6)Glc = target: Glc(b1-6)Glc
# How it was run: as §1
# GlcA(b1-3)Gal = target: GlcA(b1-3)Gal
# How it was run: as §1
# GlcA(b1-3)GlcNAc = target: GlcA(b1-3)GlcNAc
# How it was run: as §1
# GlcA(b1-6)Gal = target: GlcA(b1-6)Gal
# How it was run: as §1
# [6] = target: GlcNAc(a1-3)Gal(b1-4)GlcNAc
# How it was run: as §1
# [7] = target: GlcNAc(a1-4)Gal(b1-3)GlcNAc
# How it was run: as §1
# [8] = target: GlcNAc(a1-4)Gal(b1-4)GalNAc
# How it was run: as §1
# [9] = target: GlcNAc(a1-4)Gal(b1-4)GlcNAc
# How it was run: as §1
# [10] = target: GlcNAc(a1-4)Gal(b1-4)GlcNAc(b1-3)Gal(b1-4)Glc
# How it was run: as §1
# [11] = target: GlcNAc(a1-4)Gal(b1-4)GlcNAc(b1-3)Gal(b1-4)GlcNAc
# How it was run: as §1
# [12] = target: GlcNAc(a1-4)Gal(b1-4)GlcNAc(b1-3)Gal(b1-4)GlcNAc(b1-3)Gal(b1-4)GlcNAc
# How it was run: as §1
# [13] = target: GlcNAc(a1-4)Gal(b1-4)GlcNAc(b1-3)Gal(b1-4)[Fuc(a1-3)]GlcNAc(b1-3)Gal(b1-4)[Fuc(a1-3)]GlcNAc
# How it was run: as §1
binder,measurement,setting,value
B1,glycan array binding signal (z-score),[1],-0.127
same,glycan array binding signal (z-score),Gal3S(b1-4)Glc,-0.411
same,glycan array binding signal (z-score),Gal3S(b1-4)Glc6S,0.046
same,glycan array binding signal (z-score),Gal3S(b1-4)GlcNAc,-0.226
same,glycan array binding signal (z-score),Gal3S(b1-4)GlcNAc6S,-0.129
same,glycan array binding signal (z-score),[2],1.04
same,glycan array binding signal (z-score),Gal3S4S(b1-4)GlcNAc,-0.434
same,glycan array binding signal (z-score),Gal3S6S(b1-4)GlcNAc,-0.557
same,glycan array binding signal (z-score),Gal3S6S(b1-4)GlcNAc6S,0.503
same,glycan array binding signal (z-score),Gal4S(b1-4)GlcNAc,-0.443
same,glycan array binding signal (z-score),Gal4S6S(b1-4)GlcNAc,0.319
same,glycan array binding signal (z-score),Gal6S(b1-4)Glc,-0.241
same,glycan array binding signal (z-score),Gal6S(b1-4)Glc6S,0.876
same,glycan array binding signal (z-score),Gal6S(b1-4)GlcNAc,-0.536
same,glycan array binding signal (z-score),Gal6S(b1-4)GlcNAc6S,0.389
same,glycan array binding signal (z-score),GalNAc(a1-3)Gal,3.08
same,glycan array binding signal (z-score),GalNAc(a1-3)GalNAc,-0.502
same,glycan array binding signal (z-score),GalNAc(b1-3)Gal,4.09
same,glycan array binding signal (z-score),[3],5.53
same,glycan array binding signal (z-score),[4],5.52
same,glycan array binding signal (z-score),GalNAc(b1-3)GalNAc,0.08
same,glycan array binding signal (z-score),GalNAc(b1-4)GlcNAc,1.05
same,glycan array binding signal (z-score),[5],0.24
same,glycan array binding signal (z-score),Glc(a1-4)Glc,-0.386
same,glycan array binding signal (z-score),Glc(a1-6)Glc(a1-6)Glc,-0.559
same,glycan array binding signal (z-score),Glc(b1-4)Glc,-0.295
same,glycan array binding signal (z-score),Glc(b1-6)Glc,-0.414
same,glycan array binding signal (z-score),GlcA(b1-3)Gal,-0.5
same,glycan array binding signal (z-score),GlcA(b1-3)GlcNAc,-0.546
same,glycan array binding signal (z-score),GlcA(b1-6)Gal,-0.081
same,glycan array binding signal (z-score),[6],-0.151
same,glycan array binding signal (z-score),[7],0.841
same,glycan array binding signal (z-score),[8],-0.165
same,glycan array binding signal (z-score),[9],-0.521
same,glycan array binding signal (z-score),[10],-0.538
same,glycan array binding signal (z-score),[11],-0.562
same,glycan array binding signal (z-score),[12],-0.496
same,glycan array binding signal (z-score),[13],1.55
